Experimental data from the DeepSol protein solubility set.

Assay: soluble on expression in E. coli; label from the status in PepcDB or PDB records

With “GNTPYVTKDLLQAKRFQAQTLGTTYIYDFPEMFRQALFKLWGSPDKYPKDILTYTELVLDSQGQLVEMNRLPGGNEVGMVAFKMRFKTQEYPEGRDVIVIGNDITFRIGSFGPGEDLLYLRASEMARAEGIPKIYVAANSGARIGMAEEIKHMFHVAWVDPEDPHKGFKYLYLTPQDYTRISSLNSVHCKHIEEGGESRYMITDIIGKDDGLGVENLRGSGMIAGESSLAYEEIVTISLVTCRAIGIGAYLVRLGQRVIQVENSHIILTGASALNKVLGREVYTSNNQLGGVQIMHYNGVSHITVPDDFEGVYTILEWLSYMPKDNHSPVPIITPTDPIDREIEFLPSRAPYDPRWMLAGRPHPTLKGTWQSGFFDHGSFKEIMAPWAQTVVTGRARLGGIPVGVIAVETRTVEVAVPADPANLDSEAKIIQQAGQVWFPDSAYKTAQAIKDFNREKLPLMIFANWRGFSGGMKDMYDQVLKFGAYIVDGLRQYKQPILIYIPPYAELRGGSWVVIDATINPLCIEMYADKESRGGVLEPEGTVEIKFRKKDLIKSMRRIDPAYKKLMEQLGEPDLSDKDRKDLEGRLKAREDLLLPIYHQVAVQFADFHDTPGRMLEKGVISDILEWKTARTFLYWRLRRLLLEDQVKQEILQASGELSHVHIQSMLRRWFVETEGAVKAYLWDNNQVVVQWLEQHWQAGDGPRSTIRENITYLKHDSVLKTIRGLVEENPEVAVDCVIYLSQHISPAERAQVVHLLSE” the “soluble on expression in E. coli” value was “soluble”.
With “SSFPGMPKWRKTHLTYRIVNYTPDLPRDAVDSAIEKALKVWEEVTPLTFSRLYEGEADIMISFAVKEHGDFYSFDGPGHSLAHAYPPGPGLYGDIHFDDDEKWTEDASGTNLFLVAAHELGHSLGLFHSANTEALMYPLYNSFTELAQFRLSQDDVNGIQSLYGPPPASTEEPLVPTKSVPSGSEMPAKCDPALSFDAISTLRGEYLFFKDRYFWRRSHWNPEPEFHLISAFWPSLPSYLDAAYEVNSRDTVFIFKGNEFWAIRGNEVQAGYPRGIHTLGFPPTIRKIDAAVSDKEKKKTYFFAADKYWRFDENSQSMEQGFPRLIADDFPGVEPKVDAVLQAFGFFYFFSGSSQFEFDPNARMVTHILKSNSWLHC” the “soluble on expression in E. coli” value was “soluble”.
With “KMEYEITNYSERHTELPGHFIGLNTVDKLEESPLRDFVKSHGGHTVISKILIANNGIAAVKEIRSVRKWAYETFGDDRTVQFVAMATPEDLEANAEYIRMADQYIEVPGGTNNNNYANVDLIVDIAERADVDAVWAGWGHASENPLLPEKLSQSKRKVIFIGPPGNAMRSLGDKISSTIVAQSAKVPCIPWSGTGVDTVHVDEKTGLVSVDDDIYQKGCCTSPEDGLQKAKRIGFPVMIKASEGGGGKGIRQVEREEDFIALYHQAANEIPGSPIFIMKLAGRARHLEVQLLADQYGTNISLFGRDCSVQRRHQKIIEEAPVTIAKAETFHEMEKAAVRLGKLVGYVSAGTVEYLYSHDDGKFYFLELNPRLQVEHPTTEMVSGVNLPAAQLQIAMGIPMHRISDIRTLYGMNPHSASEIDFEFKTQDATKKQRRPIPKGHCTACRITSEDPNDGFKPSGGTLHELNFRSSSNVWGYFSVGNNGNIHSFSDSQFGHIFAFGENRQASRKHMVVALKELSIRGDFRTTVEYLIKLLETEDFEDNTITTGWLDDLI” the “soluble on expression in E. coli” value was “soluble”.
With “MKRTGPTDPNLRRLIRFLKKKSNEEGVKIWKDLAWRLERPRRQRAEVNVSKINRYAKDGDMIVVPGSVLGAGKLEKKVIVAAWKFSETARKKITEAGGEAITIEELIERNPKGSGVIIME” the “soluble on expression in E. coli” value was “soluble”.
With “MKTNDVRVDTKLNKFIWSKGIKNVPYRVRVRLSRRRNEDEDSAQKLYTLCTYVPCTNFHGLTNVNVDSEE” the “soluble on expression in E. coli” value was “not soluble”.
With “MPAFHSEIEDFQASVGNMALLPLRTQVRGPAPTVDIPNDIIDESLYFWKSNIFFRTYEVKSEVDRVLIYITLYITECLKRLARCTSKSQGQQELYTLAISRFDIPGDAGFPLNGIYTKPEDPELMRQYFLQLRQETGNRLLEKVFDTPDGKPSKWWICFAKKKFMEKSLSGPGMLEHHHHHH” the “soluble on expression in E. coli” value was “not soluble”.
For “MKPMYRSRSWRRKYVRTPGGRVVIHFERKKPKIAHCAMCGRPLNGIPRGRPVEMRKLPKTKKRPERPMPHLCPRCMRKVMKEQIRAQLSLEHHHHHH”, the “soluble on expression in E. coli” value was “soluble”.
With “MAQGQRKFQAQKPKSKAAAAERSRGPRKGGRVIAPKKARVVQQQKLKKSLEVGIRKKIEHDVVMKASSSLPKRLALLKGASKKSEATIPGKTPS” the “soluble on expression in E. coli” value was “not soluble”.
